According to paper PMC6919601, “Identification of Plasmodium dipeptidyl aminopeptidase allosteric inhibitors by high throughput screening” (PLoS ONE, 2019):
Out of some 110,000 compounds screened, about 230 (0.21%) showed an effect of 50% or more. The list shows a part of the results.

target: DPAP1 (Plasmodium falciparum, UniProt Q8IIJ9); assay: primary screen, percent inhibition; read by cleavage of a fluorogenic dipeptide substrate; higher = more effect of the substance; set-up: species or system P. falciparum D10 trophozoite lysates; single well
Sequence (Q8IIJ9 whole entry, looked up): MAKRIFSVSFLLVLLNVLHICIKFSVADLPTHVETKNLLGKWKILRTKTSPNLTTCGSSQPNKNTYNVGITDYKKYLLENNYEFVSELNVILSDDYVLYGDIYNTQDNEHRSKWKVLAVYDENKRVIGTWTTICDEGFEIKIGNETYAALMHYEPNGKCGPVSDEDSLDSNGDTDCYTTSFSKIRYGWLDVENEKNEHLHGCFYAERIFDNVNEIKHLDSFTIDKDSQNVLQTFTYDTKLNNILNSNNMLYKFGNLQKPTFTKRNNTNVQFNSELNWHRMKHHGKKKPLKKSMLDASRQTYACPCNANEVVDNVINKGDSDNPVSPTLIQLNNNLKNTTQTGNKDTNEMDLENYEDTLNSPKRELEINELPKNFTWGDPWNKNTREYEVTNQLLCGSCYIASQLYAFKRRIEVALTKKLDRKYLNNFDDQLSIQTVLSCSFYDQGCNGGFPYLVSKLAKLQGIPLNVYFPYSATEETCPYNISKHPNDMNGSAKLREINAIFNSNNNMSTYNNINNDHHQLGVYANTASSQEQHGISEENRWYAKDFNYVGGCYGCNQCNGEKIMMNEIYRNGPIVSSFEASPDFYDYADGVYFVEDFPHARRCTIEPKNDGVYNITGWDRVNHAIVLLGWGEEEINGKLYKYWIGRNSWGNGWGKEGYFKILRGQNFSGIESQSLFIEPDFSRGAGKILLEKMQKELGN
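Also: 30 min substrate incubation versus DMSO and 10 µM JCP410 controls.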

| Structure (SMILES) | % Inhibition @ 10 uM |
| --- | --- |
| Cc1cc(Cl)ccc1OCC(=O)Nc1cccc(Cl)c1 | -3.04% |
| C=CCNC(=S)N(Cc1ccccc1)Cc1ccccc1 | 4.16% |
| CCCn1c(C(O)c2ccc(N(C)C)cc2)nc2ccccc21 (centres unmarked) | -0.712% |
| Cc1ccc(C(=O)NC(c2ccccc2)c2ccccc2)o1 | -8.02% |
| O=C(Nc1ccccc1Cl)c1ccc(OC(F)F)cc1 | -5.31% |
| COc1ccc(-c2noc(-c3nnn(-c4cccc(Cl)c4C)c3N)n2)cc1 | -4.5% |
| CCOc1ccc(-n2cc(-c3ccccc3)c3c(NCCN4CCOCC4)ncnc32)cc1 | -0.417% |
| CCCc1ccc(OCc2ccc(C(=O)OC)cc2)c(OC)c1 | 8.07% |
| COc1ccc(CCNC(=O)C(C)n2ccc3cc(S(=O)(=O)N4CCCC4)ccc32)c(OC)c1 (centres unmarked) | 5.78% |
| Cc1nc2c3ccccc3nc(NCc3ccc4c(c3)OCO4)n2n1 | 0.981% |
| N=C1/C(=C/c2cccn2-c2ccc(Br)cc2)C(=O)N=C2SC=CN12 | 1.9% |
| Nc1nonc1-c1nc2ccccc2n1Cc1cc2c(cc1Cl)OCO2 | -1.22% |
| OC(CC#CCN1CCCCC1)(c1ccccc1)C1CCCCC1 (centres unmarked) | -7.7% |
| CCCCOc1ccc(C(=O)/N=c2\sc(C(=O)OCC)c(C)n2C)cc1 | -2.36% |
| CC(Cc1ccccc1)NC(=O)CN1C(=O)c2ccccc2S1(=O)=O (centres unmarked) | -3.39% |
| Cc1cc(NC(=O)CN(C)CCC#N)nc2c1c(=O)oc1ccccc12 | -4.46% |
| O=C(CN1CCN(Cc2ccccc2Cl)S1(=O)=O)NCc1ccccc1Cl | -2.41% |
| CCOc1ccc2nc(N3CCC(C(=O)N4CCN(c5ncccn5)CC4)CC3)sc2c1 | 4.76% |
| Cc1ccccc1S(=O)(=O)NC(=O)Nc1nc(-c2cccc(C(F)(F)F)c2)cs1 | -2.5% |
| Cc1cc(NC(=O)Nc2cc(C)nn2-c2ccccc2)n(-c2ccccc2)n1 | 0.708% |
| COc1ccc(S(=O)(=O)Nc2cc3sc(=O)oc3c3ccccc23)cc1 | -4.43% |
| O=C(CCc1nc2ncccc2c(=O)n1Cc1ccccc1)NCc1ccccc1Cl | 0.953% |
| Cc1nc2c(C)cccc2c(O)c1CN(C)C | 1.64% |
| C=CCN1CCOC(c2cccc(C(F)(F)F)c2)C1 (centres unmarked) | -4.48% |
| O=C(NCc1ccco1)c1ccc(-c2ccccc2)cc1 | 12.6% |
| O=C(Cc1ccccc1)NC1CCCCC1NC(=O)Cc1ccccc1 (centres unmarked) | -3.59% |

| Structure (SMILES) | % Inhibition @ 10 uM |
| --- | --- |
| Nc1nc(-c2ccccc2)cc(-c2ccccc2O)n1 | 0.829% |
| COCCNC(=O)C1CCCN(S(=O)(=O)c2cccc3nsnc23)C1 (centres unmarked) | -8.63% |
| COCCN(CCOC)C(=O)c1sc2nc(-c3ccccc3)cn2c1C | -5.58% |
| CCOc1nc(Nc2ccccc2)nc(Nc2ccccc2)n1 | 6.4% |
| CCCCC12CN3CC(C)(CN(C1)C3c1cccc(C)c1)C2=O (centres unmarked) | -5.33% |
| COCC(C)NC(C)Cc1ccccc1OC (centres unmarked) | -1.81% |
| O=C(O)c1cccc(NC(=O)c2ccc(-c3ccccc3)cc2)c1 | 3.9% |
| CC1=C(C(=O)Nc2ccc(C)cc2)C(c2ccc(F)cc2)NC(=O)N1 (centres unmarked) | -3.01% |
| O=C(Nc1cc(Cl)ccc1C(=O)O)c1ccc(CN2C(=O)c3ccccc3C2=O)cc1 | -0.68% |
| Cc1nn(CCCC(=O)O)c(=O)c2cc3sccc3n12 | 7.75% |
| CNC(=O)CN(c1ccc(OC)cc1OC)S(=O)(=O)c1ccc(C)cc1 | 3.17% |
| CCOC(=O)C1=C(C)N(C2CCCCC2)C(=O)C1 | -1.32% |
| CCOC(=O)C1CCN(Cc2sccc2C)CC1 | -0.127% |
| Nc1nc2sc3c(c2c(C(F)(F)F)c1C(=O)NC12CC4CC(CC(C4)C1)C2)CCC3 | 6.31% |
| CN1C(N)=NC(=O)/C1=C/c1cc(O)ccc1Br | 4.18% |
| FC(F)(F)c1nn2cc(-c3ccccc3)nc2s1 | 6.06% |
| Cc1ccccc1NC(=O)CN1C(=O)S/C(=C/c2ccccc2)C1=O | -3.25% |
| O=C(O)c1cnc2cc(N3CCCCCC3)c(F)cc2c1O | 3.65% |
| CN1CCN(CCCNC(=O)c2ccc(CS(=O)(=O)Cc3ccc(Cl)cc3)o2)CC1 | 2.05% |
| COc1ccccc1N1CCN(C(=O)c2cccnc2Cl)CC1 | -0.622% |
| COc1ccc(-c2nnc3n2N=C(C(C)(C)C)CS3)cc1 | 13.1% |
| Cc1cc(OCC(O)CN(Cc2ccccc2)C(C)(C)C)ccc1[N+](=O)[O-] (centres unmarked) | 1.54% |
| Clc1ccc(OCCCCCCN2CCOCC2)cc1 | -2.12% |
| NC(=O)c1cc2nc(-c3cccs3)cc(C(F)(F)F)n2n1 | -3.27% |
| Cc1ccc(NC(=O)CN2CCN(Cc3ccc4c(c3)OCO4)CC2)cc1 | 1.89% |
| CCN1CCC(C#N)(NC(=O)[C@H](Cc2c(F)cccc2F)NC(=O)c2ccc(-c3cc(C(=O)OC)ccc3Cl)cc2)CC1 | 2.87% |

| Structure (SMILES) | % Inhibition @ 10 uM |
| --- | --- |
| COc1ccc(N2CCN(S(=O)(=O)c3ccc(Br)cc3)CC2)cc1 | 0.472% |
| CN1CCN(Cc2cc(F)ccc2F)CC1 | -0.817% |
| Cc1ccccc1N1CC(C(=O)Nc2ccc3ccccc3c2)CC1=O (centres unmarked) | -2.78% |
| COc1ccc(OC)c(NC(=O)c2c(NC(C)=O)sc3c2CCCCC3)c1 | -2.09% |
| Cc1cc(Br)ccc1NC(=O)CCc1ccccc1 | 1.91% |
| CCCCN(CC)CCNC(=O)Cn1nc(C)c2c(C)n(-c3ccccc3)nc2c1=O | -0.665% |
| COc1ccc(Cn2c(SCC(=O)NCc3ccco3)nc3ccsc3c2=O)cc1 | 3.21% |
| COC(=O)c1c(NC(=O)C(C)Oc2ccc(Cl)cc2Cl)sc(C)c1C (centres unmarked) | 22.8% |
| CCCCN(C)CCCNC(=O)CN1N=C(c2ccc(Cl)cc2)CCC1=O | 0.514% |
| Cc1nn(C)c(C(=O)Nc2ccc(S(=O)(=O)N3CCCC3)cc2)c1Cl | 2.44% |
| Cc1nn(C)cc1CNC(=O)C1C2CCC(C2)C1C(=O)O (centres unmarked) | -3.77% |
| COc1cccc(C2CC(c3c(O)cc(C)oc3=O)=NCCS2)c1OC (centres unmarked) | -0.0372% |
| CC(=O)C1C2c3ccccc3OC1(C)N=c1s/c(=C/c3cnn(C)c3)c(=O)n12 (centres unmarked) | -1.1% |
| Cc1cc(C)c(S(=O)(=O)Nc2ccc(O)cc2)c(C)c1 | -3.09% |
| Cc1ccccc1-c1nc(CS(=O)CC(=O)NCc2ccc3c(c2)OCO3)c(C)o1 (centres unmarked) | -2.85% |
| COc1cccc(Cn2c(SCc3ccc(C(=O)N4CCOCC4)cc3)nc3ccncc32)c1 | 2.65% |
| N=c1n(CCN2CCOCC2)c2ccccc2n1CC(=O)c1ccc(-c2ccccc2)cc1 | 1.34% |
| COc1ccc2c(c1)c(C(=O)O)c(C)n2CCc1ccc(OC)c(OC)c1 | -1.47% |
| CCN1CCN(Cc2ccc(Cl)cc2Cl)CC1 | -1.92% |
| CC(CCc1ccccc1)NC(=O)C(=O)NCC1COc2ccccc2O1 (centres unmarked) | -0.178% |
| CCCC(O)(C(N)=O)c1ccccc1 (centres unmarked) | -2.78% |
| CCc1cccc(C)c1NC(=O)C1CC=CCC1C(=O)O (centres unmarked) | -4.89% |
| CCCOc1cccc(C2C3=C(CCCC3=O)N(CCC(=O)O)C3=C2C(=O)CCC3)c1 | -3.05% |
| CC(C)c1ccc(C2CC(=O)Nc3c2ccc2ccccc32)cc1 (centres unmarked) | 0.789% |
| COc1cccc(C2CC(C(F)(F)F)n3ncc(C(=O)NC(C)(C)C)c3N2)c1 (centres unmarked) | -11.5% |
| CCc1ccc(S(=O)(=O)c2nnn3c2nc(N2CCC(C)CC2)c2sccc23)cc1 | -5.61% |

| Structure (SMILES) | % Inhibition @ 10 uM |
| --- | --- |
| CCC(C)NS(=O)(=O)c1ccc(Cc2ccc(S(=O)(=O)NC(C)CC)cc2)cc1 (centres unmarked) | -4% |
| O=C1CC(c2cccc3ccccc23)Sc2nc(-c3ccc(F)cc3)nn21 (centres unmarked) | 0.343% |
| CC(C)C[C@H](NC(=O)OCCCC1CCCC1)C(=O)NCC#N | 1.71% |
| CCc1nnc(S)n1/N=C/c1ccc(O)cc1 | -8.85% |
| CC1=C(C(=O)Nc2ccccc2C)C(c2ccc(Cl)cc2)C2=C(O)CCCC2=N1 (centres unmarked) | -4.48% |
| c1ccc2[nH]c(C34CC5CC(CC(C5)C3)C4)cc2c1 | -0.178% |
| N#Cc1cccn1-c1ccccc1F | -7.57% |
| Cc1nn(CCC#N)c(O)c1C(C)C | -1.07% |
| Cc1noc2ncnc(N3CCC(C)CC3)c12 | -0.171% |
| Cc1nc(O)c(C(=O)/C=C/c2ccc(Cl)cc2Cl)c2c1CCCC2 | 2.41% |
| COc1ccc(-n2c(SC(C)C)nc3c(c2=O)C2(CCCCC2)Cc2ccccc2-3)cc1 | -2.48% |
| Cc1ccc2nc(C3C(=O)c4ccc(Br)cc4C3=O)ccc2c1 (centres unmarked) | -3.42% |
| Cc1ccc(N(CC(=O)N2CCc3ccccc3C2)S(C)(=O)=O)cc1Cl | -1.41% |
| Cc1cc(OCC(=O)NC2CCCCCC2)ccc1Cl | -1.55% |
| Cc1cc(C)c2nc(N3CCCC(C(=O)NC4CCCC4)C3)sc2c1 (centres unmarked) | 0.137% |
| CCN(CC)CCOc1c(OC)cccc1OC | -2.2% |
| Cc1cccc(N2C(=O)C3C4C=CC(C4)C3C2=O)c1C (centres unmarked) | 8.09% |
| CCCOc1ccc(C2C3=C(O)CCCC3=NC(C)=C2C(=O)Nc2ccccc2C)cc1OC (centres unmarked) | 3.05% |
| C=CCNC(=O)c1c(O)c2ccccc2n(C)c1=O | -0.711% |
| O=C(O)CCC(=O)Nc1sc2c(c1C(=O)Nc1ccc(Cl)cc1)CCCC2 | 16.8% |
| CCCCOc1ccc(C(=O)Nc2nc3c(s2)Cc2cc(OC)ccc2-3)cc1 | -0.0735% |
| CC(NC(=O)C1c2ccccc2C(=O)N(C)C1c1cccs1)c1ccccc1 (centres unmarked) | 4.59% |
| CCOc1cc(/C=C2/C(=N)N3OC(C)=CC3=NC2=O)cc(Cl)c1OCc1ccccc1 | -3.23% |
